Test results as given in US20230250147A1 (Sanofi, published 2023).

T1: Mouse GLP-1R (mouse, UniProt O35659 22-463)
T1 sequence (looked up): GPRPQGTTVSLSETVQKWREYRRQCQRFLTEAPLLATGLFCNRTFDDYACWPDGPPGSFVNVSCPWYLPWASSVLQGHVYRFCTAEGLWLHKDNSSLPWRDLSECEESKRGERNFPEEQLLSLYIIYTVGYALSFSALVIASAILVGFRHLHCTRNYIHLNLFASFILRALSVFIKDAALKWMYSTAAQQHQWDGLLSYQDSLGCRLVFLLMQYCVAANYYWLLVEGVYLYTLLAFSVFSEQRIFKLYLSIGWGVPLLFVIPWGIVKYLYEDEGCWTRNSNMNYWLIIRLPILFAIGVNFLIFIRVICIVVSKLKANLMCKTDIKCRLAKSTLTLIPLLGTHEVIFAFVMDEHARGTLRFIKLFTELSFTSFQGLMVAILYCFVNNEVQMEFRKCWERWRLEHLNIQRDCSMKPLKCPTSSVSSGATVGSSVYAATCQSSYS

B1: GLP-1RA/FGF21 Fc fusion protein SEQ ID NO: 7 (Fc fusion)
chain: GHGEGTFTSDKSKQLEEEAVRLFIEWLKAGGPKKIRYSGGGGGGGSGGGGSGGGGSA[… human IgG1 Fc with changes …]GGGSGSAHPIPDSSPLLQFGGQVRQRYLYTDDACQTEAHLEIREDGTVGGAADQSPESLLQLKALKPGVIQILGVKTSRFLCQRPDGALYGSLHFDPEACSFRELLLEDGYNVYQSEAHGLPLHLPGCKSPHRDPAPRGPARFLPLPGLPPAPPEPPGILAPQPPDVGSSDPLSMVGSQGRSPSYAS
B2: GLP-1RA/FGF21 Fc fusion protein SEQ ID NO: 8 (Fc fusion)
chain: GHGEGTFTSDKSKQLEEEAVRLFIEWLKAGGPKKIRYSGGGGGGGSGGGGSGGGGSA[… human IgG1 Fc with changes …]GGGSGSAHPIPDSSPLLQFGGQVRQRYLYTDDACQTEAHLEIREDGTVGGAADQSPESLLQLKALKPGVIQILGVKTSRFLCQRPDGALYGSLHFDPEACSFRELLLEDGYNVYQSEAHGLPLHLPGCKSPHRDPAPRGPARFLPLPGLPPAPPEPPGILAPQPPDVGSSDPLSMVYPSQGRSPSYAS

Tests used:
Assay in all cases: cell-based or functional assay
[1] = target: T2, human FGFR1c together with human beta-Klotho (KLB) (human, UniProt P11362 22-822; Q86Z14 1-1044)
[2] = target: T2, human FGFR1c together with human …; remark: listed apart in the source
[3] = target: human glucagon-like peptide-1 (GLP-1) receptor (human, UniProt P43220 24-463)
[4] = target: T1, Mouse GLP-1R
[5] = target: Monkey GLP-1R (monkey)

T2 sequence (P11362 22-822, chain 1 of 2): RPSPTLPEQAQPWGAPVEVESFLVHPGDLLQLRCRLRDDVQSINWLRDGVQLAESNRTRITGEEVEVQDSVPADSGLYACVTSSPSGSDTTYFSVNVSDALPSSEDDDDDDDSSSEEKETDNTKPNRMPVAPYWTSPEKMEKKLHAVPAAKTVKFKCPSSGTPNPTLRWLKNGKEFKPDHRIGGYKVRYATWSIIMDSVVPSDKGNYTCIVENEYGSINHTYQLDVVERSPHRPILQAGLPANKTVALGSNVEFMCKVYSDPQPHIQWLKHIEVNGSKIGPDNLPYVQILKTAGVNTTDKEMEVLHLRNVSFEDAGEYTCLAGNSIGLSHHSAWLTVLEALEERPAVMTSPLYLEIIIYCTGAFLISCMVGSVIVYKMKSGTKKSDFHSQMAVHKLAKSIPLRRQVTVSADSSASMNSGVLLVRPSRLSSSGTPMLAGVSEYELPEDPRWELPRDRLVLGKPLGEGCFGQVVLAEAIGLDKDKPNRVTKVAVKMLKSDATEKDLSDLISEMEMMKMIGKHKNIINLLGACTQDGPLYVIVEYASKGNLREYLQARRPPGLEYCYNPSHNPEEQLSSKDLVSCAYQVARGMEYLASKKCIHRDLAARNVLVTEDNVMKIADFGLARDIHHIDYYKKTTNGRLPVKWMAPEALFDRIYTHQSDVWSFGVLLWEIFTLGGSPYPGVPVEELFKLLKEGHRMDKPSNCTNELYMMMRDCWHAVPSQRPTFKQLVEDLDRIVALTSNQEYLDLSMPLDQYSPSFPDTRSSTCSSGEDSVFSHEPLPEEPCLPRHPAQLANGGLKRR
T2 sequence (Q86Z14 whole entry, chain 2 of 2, further chain): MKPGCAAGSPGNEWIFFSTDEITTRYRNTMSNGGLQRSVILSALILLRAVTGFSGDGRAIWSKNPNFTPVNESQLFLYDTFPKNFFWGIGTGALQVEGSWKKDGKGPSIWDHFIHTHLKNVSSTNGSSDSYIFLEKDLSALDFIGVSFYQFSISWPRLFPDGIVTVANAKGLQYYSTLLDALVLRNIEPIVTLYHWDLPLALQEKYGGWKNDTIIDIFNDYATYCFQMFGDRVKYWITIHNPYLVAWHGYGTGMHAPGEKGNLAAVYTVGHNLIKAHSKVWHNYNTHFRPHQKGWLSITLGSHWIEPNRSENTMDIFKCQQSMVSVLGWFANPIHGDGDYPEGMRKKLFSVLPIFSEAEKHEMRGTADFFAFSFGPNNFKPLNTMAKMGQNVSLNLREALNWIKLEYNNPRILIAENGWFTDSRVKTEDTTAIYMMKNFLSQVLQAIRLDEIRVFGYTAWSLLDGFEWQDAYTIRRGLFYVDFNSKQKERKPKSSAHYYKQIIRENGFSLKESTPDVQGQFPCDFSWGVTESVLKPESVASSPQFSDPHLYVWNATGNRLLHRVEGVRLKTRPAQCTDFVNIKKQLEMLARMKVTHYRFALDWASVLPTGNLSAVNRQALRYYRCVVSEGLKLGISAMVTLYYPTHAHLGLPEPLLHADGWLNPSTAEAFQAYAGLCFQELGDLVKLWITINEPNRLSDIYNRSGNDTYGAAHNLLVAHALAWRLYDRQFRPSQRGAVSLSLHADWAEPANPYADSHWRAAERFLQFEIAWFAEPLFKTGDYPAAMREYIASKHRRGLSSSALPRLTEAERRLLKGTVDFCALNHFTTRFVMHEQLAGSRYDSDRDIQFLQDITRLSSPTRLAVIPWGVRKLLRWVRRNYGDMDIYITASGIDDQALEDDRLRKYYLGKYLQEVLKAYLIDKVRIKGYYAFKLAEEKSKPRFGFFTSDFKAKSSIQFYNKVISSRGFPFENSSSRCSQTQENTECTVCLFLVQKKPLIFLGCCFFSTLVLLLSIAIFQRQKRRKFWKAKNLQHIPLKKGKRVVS

| Binder | pFGFR ICW EC50 [1] | pERK ICW EC50 [2] | HTRF cAMP EC50 [3] | HTRF cAMP EC50 [4] | HTRF cAMP EC50 [5] |
| --- | --- | --- | --- | --- | --- |
| B1 | 27.9 nmol/L | 5.96 nmol/L | 0.131 nM | 0.0681 nM | 0.19 nM |
| B2 | 25.4 nmol/L | 6.75 nmol/L | 0.152 nM | 0.0771 nM | 0.217 nM |
